The supplement of paper PMC10126150
Sequences with one replicate were seen in a single cluster, so their values are uncertain.

Test system: ATP
Test: switch fluorescence ratio, 500 uM ATP over buffer (Cy3 cluster intensity, sum of 5 cycles each) (fold (ratio)); higher = stronger signal-on switching upon ATP binding; sequences stand for … in TCGTCGGCAGCGTCAGATGTGTATAAGAGACAGTTTTTTTTTTTTTTTTTTTTTTTTT…TC
Conditions: aptamer strand: ATP DNA aptamer (quencher-CACCTGGGGGAGTATTGCGGAGGAAGG + anchor), 100 nM annealed; ATP concentration: 500 uM; one replicate
Procedure, shortened: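 Exposure to 500 uM ATP lasted 15 min at 22 °C before imaging, and a selection-buffer image was taken beforehand, for Cy3-labelled switching-strand clusters on a modified Illumina MiSeq flow-cell annealed to 100 nM quencher-labelled ATP aptamer. Five buffer/ATP cycles were run with NaOH stripping and re-annealing between them. The fluorescence ratio per cluster is summed target-cycle over summed buffer-cycle Cy3 intensity, averaged per switch-domain sequence. Clusters outside 100-1000 RFU were excluded.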

Sequence | switch fluorescence ratio
TAGGATTGAT | 1.01
AACAATGACT | 1.09
GATGGACAGT | 1.02
CGAGGGGTGA | 0.99
GGCATGAGTA | 1
GGGTGTCCAA | 0.993
ATGCATCGCA | 1.01
AGTTATCACC | 1.06
TGGTACCGTA | 0.919
AGCGTGGACC | 1.09
TTCTATACCA | 0.957
ACAGCGGTTG | 1.03
CAGTTGATTT | 0.969
TGCCTCATAG | 1
ACCTTCTGCT | 1.06
TTCAAGACAC | 1.03
ACTAATGAGT | 1.02
TTAGCTGTGA | 1.02
TAACAGAATT | 1.03
ACTGATTCCC | 1.01
GGATCGGGAG | 0.974
AAGTGCAATG | 1.04
GATTGACATC | 1.06
GTAGGGCCTC | 1.01
GCTCGCTTGA | 1.03
AGAAAGACGG | 0.866

Sequence | switch fluorescence ratio
CAAAAAGATC | 1.01
GCATCATGA | 0.961
TCGCTGGGGT | 1.39
AGAGAGGGT | 0.996
TGCATTCCGT | 1.05
TGGAACTTGC | 1.12
ATGGGGATTC | 1
TGTTGTACTG | 1.1
GGGGGAGCAT | 0.955
GGGCAAATAG | 1.12
ACCATGCCCT | 0.981
CTCCAATGTA | 1.39
TGATGGTAT | 1.04
TGGCCTTTCG | 1.03
CTTAGTGTA | 1
CGAGGTCACA | 1.03
ACCCAGTCAT | 1.01
CTAAAGTGCA | 0.98
TCTGGTTGTC | 1.05
ACCTTACACC | 1.7
ACCAGATGAG | 1.04
CGCAATCTGA | 3.1
GGAAAGCCTG | 0.992
GTTAATTGCA | 1.35
AAATGTTACC | 1.05
TGAGCTTCAG | 1

Sequence | switch fluorescence ratio
ATCAGCCCT | 1.04
TTGAGGTCTC | 0.969
GGACGAGCCA | 1.01
CTTGTCGGGT | 0.983
TTGGATCGTA | 1.01
GCACCGGATT | 1.01
GGATAACAGG | 0.965
GTGAGGCTTG | 0.97
TATCTTTCGA | 1.02
GGGACTAGCA | 1.02
TGTGTGCCTG | 1.02
GCCTCTTCCG | 1.06
AAGAGCGCTT | 0.967
TTAGTTAAGC | 1.05
ATGACATATT | 1.05
CATTTTGCTA | 0.955
AATGTAGCG | 1.05
AAAGCTCGAG | 0.995
AAGTGCGGGG | 0.991
AGCTAGTCAT | 1.02
ACTGAATAGC | 0.989
ATCGCGTCGG | 0.981
CTGCATAAGG | 1.18
CTAAATCCTG | 0.962
TTGGTGCAG | 1.01
GTCTGAGATA | 0.988

Sequence | switch fluorescence ratio
GAGCATGTGA | 1.02
CAATCATGAG | 0.991
ATCGCTTCCG | 1.02
GGATACGGGT | 0.998
ACTGTGGGCT | 1.01
CCGGGACGTG | 0.978
TGATGCTTCG | 1.04
CTGCGTGGCT | 1.03
CTGAGGATCT | 1.02
GGTCAGATTC | 0.973
GTGGGAAATG | 1.02
CGTTGCACGC | 1.06
GTACCGCTGA | 1.17
CGATAACGAG | 1.01
TCAGCCGCGG | 1.06
CCATTATGA | 1.05
TAGTTAATGA | 0.984
CGCCCTAGAT | 1.05
AAATGCCT | 1.17
ACTGGTAATT | 1.06
AATCGAATCG | 0.985
AGGTGCTTAT | 1.04
ATACGGGAAC | 1.01
TTGCACTAAG | 0.997
AAAAGAGTAG | 0.974
AAGCGCGGCT | 1.03

Sequence | switch fluorescence ratio
ATCGTGGGCT | 1.04
TGTCTGTAT | 1.03
GAACGAGTCG | 1.04
AAGGCTCTAT | 0.957
CAATCCCTCG | 1.03
TTACTAGAGA | 1.03
CTTTAGAATA | 1.02
ACGGGCGGTA | 0.986
ATTTCTGACA | 1
AACTATCAGG | 1.14
AGTATAGTCG | 1.06
TAACAGTAT | 1.03
CGACTGTAGG | 1
TCTGGCTGA | 1.28
GGTCCGGTGT | 1.06
ATTACAGTTA | 1.01
ATGCGCTGCT | 1.03
CAAAGCGTGG | 0.987
TGTACGAGCT | 1.03
GAATTGGAGG | 0.996
TCAGAGCTCA | 1.02
TGCAGTTGTA | 0.978
CATCACATAA | 1.06
CATAACAAT | 1.02
CATAGGTTTC | 0.964
AGCGATAGAA | 0.929

Sequence | switch fluorescence ratio
GTAATGATG | 1.02
GCCTGGTGGT | 1.06
CCGCAGAAAG | 3.17
ATCCGTCCGG | 0.993
CATTTTCCCA | 1.02
TTCCAAGCGG | 1.19
GGGGGGAAT | 0.987
AACTCTTCTA | 1.05
GATGGGCTGA | 0.982
TACCTCGGGT | 1.04
TGGGAGCGAA | 1.02
TACTGTCCGG | 1.02
TTATACCATG | 1
TCAAAGGTAT | 0.996
TGCTATCGTC | 0.978
CTAATAATTT | 0.991
ACCTGACTGT | 1.54
ACGATGAGTG | 0.97
GGCGCGGTAT | 1.02
GTATCTTAAT | 0.948
CCTCGGACGG | 1.14
TGCCGTACTA | 1.02
TGGTAGGATC | 0.979
AGTCTGGGCC | 0.998
GCTAGGGC | 0.997
ACCAGCCGCC | 1.33

Sequence | switch fluorescence ratio
ACGCTGGGTC | 1.07
GCGGGTAGAG | 1.03
GCACGGTCGC | 1.02
CTTTGCAACT | 1.46
TCTTTGTAGA | 1.06
GGCCTTGTAT | 0.998
CTGTAATTAA | 1.04
CGGCTGAGTG | 1
ACACGGCCTC | 1.07
GATTGGGTG | 0.991
GGTGTAAATG | 1.02
CCACGTACGT | 1.71
GAGATGTTAA | 0.962
ACAAGAATA | 1.03
CCAATTAGGT | 1.03
GATTGGGCAG | 0.929
TTCAGTATAT | 0.997
CCTTTTCTAT | 1.01
AAGGGTTAA | 1.02
ACGTTAGTGA | 0.97
TGTCATGATG | 0.99
CGTCTCGC | 1.1
TAAAGTGGGT | 0.963
TCCGCCTTAT | 2.66
ACATTATA | 1.05
TTGAACGACG | 0.971

Sequence | switch fluorescence ratio
AGAAAAGAAG | 1.03
ACTACGACAG | 1.1
CCGCATTCAG | 4.28
CGATCGTACA | 1.04
CCGCTTGAGG | 1.06
CCGGAGACAG | 4.45
TACCTCTC | 1.03
CAAGTAAT | 1.57
ATTCAGCGGA | 0.985
CACTCGTCGT | 1
CTGTTGCCGT | 0.971
TGTGACTCA | 1.03
AGTGTACAC | 0.998
GTGGTACCGA | 1.01
ATTTCAGATC | 0.955
GGGCCACGAA | 0.973
AACCTACTAG | 1.14
ATTCGTCCAT | 1.01
TAGCGAGTTA | 1.01
